Experimental data: PMC7006413
Results are given in words; binding and its absence hold for the method and conditions named. In cells and extracts the contact can be indirect. Some entries that bind do so weakly or less than the wild type. Where a sequence is shown, tags or fusion partners need not be part of it.

Chains of the proteins cited; added tags and fusions are not shown.
UniProt P67809: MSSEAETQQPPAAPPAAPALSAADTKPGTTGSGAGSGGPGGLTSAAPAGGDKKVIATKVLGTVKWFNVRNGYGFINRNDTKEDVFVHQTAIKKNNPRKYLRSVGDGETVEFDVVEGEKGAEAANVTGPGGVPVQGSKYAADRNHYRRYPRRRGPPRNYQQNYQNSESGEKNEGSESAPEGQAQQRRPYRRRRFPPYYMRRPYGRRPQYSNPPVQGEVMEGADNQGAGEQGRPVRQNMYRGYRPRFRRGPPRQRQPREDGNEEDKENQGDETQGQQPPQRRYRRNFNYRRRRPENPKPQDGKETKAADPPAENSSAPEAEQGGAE

Each binder was assayed against flag-YB1 (wild-type) (UniProt P67809) (assay: co-IP; anti-flag IP from HEK293T cells co-transfected for 48 h with HA-BRD7 (wild type or deletion mutants) and flag-YB1 (wild type or deletion mutants); blot for HA and flag; the text calls the BRD7-mutant panel 'pulldown assays').

| Binder | binding |
| --- | --- |
| HA-BRD7 N-terminal domain mutant (1–134 aa) (domain or fragment, UniProt Q9NPI1 1-134) MGKKHKKHKSDKHLYEEYVEKPLKLVLKVGGNEVTELSTGSSGHDSSLFEDKNDHDKHKDRKRKKRKKGEKQIPGEEKGRKRRRVKEDKKKRDRDRVENEAEKDLQCHAPVRLDLPPEKPLTSSLAKQEEVEQT | binds |
| HA-BRD7 ∆C-terminal domain mutant (∆232–651 aa) (domain or fragment, UniProt Q9NPI1 1-231) MGKKHKKHKSDKHLYEEYVEKPLKLVLKVGGNEVTELSTGSSGHDSSLFEDKNDHDKHKDRKRKKRKKGEKQIPGEEKGRKRRRVKEDKKKRDRDRVENEAEKDLQCHAPVRLDLPPEKPLTSSLAKQEEVEQTPLQEALNQLMRQLQRKDPSAFFSFPVTDFIAPGYSMIIKHPMDFSTMKEKIKNNDYQSIEELKDNFKLMCTNAMIYNKPETIYYKAAKKLLHSGMKI | binds |
| HA-BRD7 ∆BRD domain mutant (∆135–231 aa) (protein, UniProt Q9NPI1) MGKKHKKHKSDKHLYEEYVEKPLKLVLKVGGNEVTELSTGSSGHDSSLFEDKNDHDKHKDRKRKKRKKGEKQIPGEEKGRKRRRVKEDKKKRDRDRVENEAEKDLQCHAPVRLDLPPEKPLTSSLAKQEEVEQTLSQERIQSLKQSIDFMADLQKTRKQKDGTDTSQSGEDGGCWQREREDSGDAEAHAFKSPSKENKKKDKDMLEDKFKSNNLEREQEQLDRIVKESGGKLTRRLVNSQCEFERRKPDGTTTLGLLHPVDPIVGEPGYCPVRLGMTTGRLQSGVNTLQGFKEDKRNKVTPVLYLNYGPYSSYAPHYDSTFANISKDDSDLIYSTYGEDSDLPSDFSIHEFLATCQDYPYVMADSLLDVLTKGGHSRTLQEMEMSLPEDEGHTRTLDTAKEMEITEVEPPGRLDSSTQDRLIALKAVTNFGVPVEVFDSEEAEIFQKKLDETTRLLRELQEAQNERLSTRPPPNMICLLGPSYREMHLAEQVTNNLKELAQQVTPGDIVSTYGVRKAMGISIPSPVMENNFVDLTEDTEEPKKTDVAECGPGGS | binds |
| HA-BRD7 C-terminal domain mutant (232–651 aa) (domain or fragment, UniProt Q9NPI1 232-651) LSQERIQSLKQSIDFMADLQKTRKQKDGTDTSQSGEDGGCWQREREDSGDAEAHAFKSPSKENKKKDKDMLEDKFKSNNLEREQEQLDRIVKESGGKLTRRLVNSQCEFERRKPDGTTTLGLLHPVDPIVGEPGYCPVRLGMTTGRLQSGVNTLQGFKEDKRNKVTPVLYLNYGPYSSYAPHYDSTFANISKDDSDLIYSTYGEDSDLPSDFSIHEFLATCQDYPYVMADSLLDVLTKGGHSRTLQEMEMSLPEDEGHTRTLDTAKEMEITEVEPPGRLDSSTQDRLIALKAVTNFGVPVEVFDSEEAEIFQKKLDETTRLLRELQEAQNERLSTRPPPNMICLLGPSYREMHLAEQVTNNLKELAQQVTPGDIVSTYGVRKAMGISIPSPVMENNFVDLTEDTEEPKKTDVAECGPGGS | no binding |
| HA-BRD7 ∆N-terminal domain mutant (∆1–134 aa) (domain or fragment, UniProt Q9NPI1 135-651) PLQEALNQLMRQLQRKDPSAFFSFPVTDFIAPGYSMIIKHPMDFSTMKEKIKNNDYQSIEELKDNFKLMCTNAMIYNKPETIYYKAAKKLLHSGMKILSQERIQSLKQSIDFMADLQKTRKQKDGTDTSQSGEDGGCWQREREDSGDAEAHAFKSPSKENKKKDKDMLEDKFKSNNLEREQEQLDRIVKESGGKLTRRLVNSQCEFERRKPDGTTTLGLLHPVDPIVGEPGYCPVRLGMTTGRLQSGVNTLQGFKEDKRNKVTPVLYLNYGPYSSYAPHYDSTFANISKDDSDLIYSTYGEDSDLPSDFSIHEFLATCQDYPYVMADSLLDVLTKGGHSRTLQEMEMSLPEDEGHTRTLDTAKEMEITEVEPPGRLDSSTQDRLIALKAVTNFGVPVEVFDSEEAEIFQKKLDETTRLLRELQEAQNERLSTRPPPNMICLLGPSYREMHLAEQVTNNLKELAQQVTPGDIVSTYGVRKAMGISIPSPVMENNFVDLTEDTEEPKKTDVAECGPGGS | no binding |
